Reference: PubChem BioAssay AID463173 (ICCB-Longwood Screening Facility, Harvard Medical School, 2010)
Hit rate of the full screen: of about 52,000 compounds, about 4,300 (8.3%) were called active. No stated cut-off is given here; in the data, active means survival mostly below about 52% (no sharp cut-off); inactive means mostly above about 56%. The list shows a part of the results.

test system: DeltatarO mutant; test: growth inhibition of S. aureus wild type versus tarO mutant, primary screen, teichoic acid synthesis inhibitors, RN4220, OD600 (AID 463173); details: OD600, 18 h, stronger effect = lower value, screened at 18.75 µg/mL (by protocol)

Row | SMILES | survival
1 | Cc1ccc(CNC(=O)CCc2nc3cccnc3n2Cc2ccccc2)cc1 | inactive: 74%
2 | COc1cc(NC(=O)Cn2nnnc2-c2ccccc2F)cc(OC)c1OC | inactive: 90%
3 | Cc1ccc(Cn2cc(S(=O)(=O)c3ccc(Cl)cc3)c(=O)c3cc4c(cc32)OCO4)cc1 | inactive: 77%
4 | Cc1ccc(CNC(=O)Cn2c(=O)n(Cc3ccccc3)c(=O)c3c2c2cc(C)ccc2n3C)cc1 | inactive: 94%
5 | COc1ccc(CN2CCc3nc(Nc4ccccc4)ncc3C2)c(OC)c1OC | inactive: 87%
6 | CCOc1ccc(N2CC(C)Cn3c2nc2c3c(=O)n(CC(=O)O)c(=O)n2C)cc1 (centres undefined) | inactive: 80%
7 | COc1cc(N2C(=O)CSC23C(=O)N(C)c2ccccc23)cc(OC)c1OC (centres undefined) | inactive: 66%
8 | COCCN1Cc2cccc(C(=O)Nc3ccc(C)c(F)c3)c2C1=O | inactive: 66%
9 | Cc1cc(C)cc(NC(=O)C(=O)NCC(c2ccc3c(c2)OCO3)N2CCOCC2)c1 (centres undefined) | inactive: 107%
10 | Cc1ccc(CNC(=O)c2cccc(N3CCCS3(=O)=O)c2)cc1 | inactive: 94%
11 | COC(=O)c1cccc(NC(=O)N(C)CCc2c(C)nn(C)c2C)c1 | inactive: 80%
12 | CCCCn1cc(S(=O)(=O)c2ccc(OCC)cc2)c(=O)c2cc(OC)c(OC)cc21 | inactive: 73%
13 | CCc1ccc(-n2nc3ccc(NC(=O)c4cc(Cl)c(OC)c(Cl)c4)cc3n2)cc1 | inactive: 83%
14 | Cc1ccc(NC(=O)CN(CCc2ccccc2)S(=O)(=O)c2ccccc2)c(C)c1 | active: 38%
15 | CCOc1ccc(C2C(=O)N(C3CCCCCC3)CC(=O)N2CCC2=CCCCC2)cc1OC (centres undefined) | inactive: 101%
16 | CCCC(=O)Nc1ccc2nc(SCC(=O)N3CCCC3)sc2c1 | inactive: 74%
17 | Cc1ccccc1NC(=O)N1CCc2cc(S(=O)(=O)N3CCC(C)CC3)ccc21 | inactive: 95%
18 | Cc1ccccc1CNC(=O)c1cccc(NC(=O)c2nsc3ccccc23)c1 | inactive: 83%
19 | COc1ccc(-c2nc(C)c(CCNC(=O)c3ccc(F)c(F)c3)s2)cc1 | inactive: 84%
20 | COc1ccccc1C1=NS(=O)(=O)N(C)C(C(=O)Nc2cc(OC)c(OC)c(OC)c2)=C1 | inactive: 78%
21 | Cc1nc2nc(SCC(=O)Nc3cccc(Cl)c3)nn2c(C)c1Cc1ccccc1 | inactive: 85%
22 | CC(C)OC(=O)CSc1nc2cccnc2n1C1CCCCC1 | inactive: 86%
23 | Cc1ccc2c(c1)c1c(c(=O)n(-c3cccc(Cl)c3)c(=O)n1CC(=O)c1ccc(Cl)cc1)n2C | inactive: 133%

Row | SMILES | survival
24 | Fc1ccc(-c2cc(-c3nc(-c4ccccc4)no3)[nH]n2)cc1 | inactive: 72%
25 | COc1ccc(Nc2nc3c(S(=O)(=O)c4ccccc4)nnn3c3ccc(Cl)cc23)c(OC)c1 | inactive: 124%
26 | CC(C)c1ccc(NC(=O)c2cn(C3CCCCC3)c(=O)c3c2c2ccccc2n3C)cc1 | inactive: 83%
27 | CN1CCN(C(c2ccc(Cl)cc2Cl)c2sc3nc(-c4ccco4)nn3c2O)CC1 (centres undefined) | inactive: 76%
28 | Cn1nc(C(=O)NCc2cccc(Cl)c2)c2c1-c1ccccc1SC2 | inactive: 74%
29 | CC1(C2CCC3C4CCC5CC6(C/C(=N\O)C5(C)C4C(O)CC32C)OCCO6)OCCO1 (centres undefined) | inactive: 56%
30 | COCCNc1ncnc2c1cnn2-c1cc(Cl)ccc1C | inactive: 83%
31 | Cc1ccc(OCC(=O)Nc2ccc(OCc3cc(=O)n4ccsc4n3)cc2)cc1 | inactive: 80%
32 | CCC(=O)N1c2ccccc2CC1C(=O)NCCc1ccccc1Cl (centres undefined) | inactive: 116%
33 | Cc1ccc(S(=O)(=O)C2(C(=O)Nc3ccc(C)c(Cl)c3)CC2)cc1 | inactive: 21%
34 | COc1ccc(N2C(=O)CSC23C(=O)N(Cc2ccccc2F)c2ccccc23)cc1Cl (centres undefined) | inactive: 78%
35 | COc1ccc(-c2cn3cccnc3n2)cc1NC(=O)COc1ccccc1 | inactive: 83%
36 | O=C(CSc1ccccc1)Nc1c[nH]c(=O)[nH]c1=O | inactive: 78%
37 | CC(=O)N(Cc1cc2cc(C)ccc2[nH]c1=O)C1CCCC1 | inactive: 68%
38 | Cc1c(CC(=O)N2CCCCC2)c(=O)oc2cc3occ(C(C)(C)C)c3cc12 | inactive: 71%
39 | CCC1=Nc2cc(C(=O)NCc3ccccc3OC)ccc2Sc2ccc(Cl)cc21 | inactive: 88%
40 | Cc1c(C(=O)NCc2ccccc2Cl)sc2nc(-c3ccc(F)cc3)cn12 | inactive: 68%
41 | O=C(NCc1ccc(F)cc1)c1cc(Sc2ccc(F)cc2F)nc2ccccc12 | inactive: 98%
42 | COc1ccc(CNC(=O)c2ccc(-c3nc(CSc4ccc(C)cc4)c(C)o3)cc2)cc1OC | active: -1%
43 | Cc1nn(C(=O)c2ccccc2)c(C)c1S(=O)(=O)N1CCOCC1 | inactive: 62%
44 | CCC(=O)N1CCc2cc(S(=O)(=O)NC(C(=O)NCc3ccccc3Cl)C(C)C)ccc21 (centres undefined) | inactive: 83%
45 | CCOC(=O)C1CCN(C(=O)Cn2c(-c3cccs3)cc3cc(Cl)ccc32)CC1 | inactive: 94%
46 | CCOC(=O)CN(Cc1ccccc1)C(C(=O)NC1CCCCC1)c1ccc(C)cc1 (centres undefined) | active: -3%

Row | SMILES | survival
47 | CCOc1ccccc1CNS(=O)(=O)c1ccc2c(c1)C(C)(C)C(=O)N2C | inactive: 91%
48 | CC1=C(c2ccc(C)cc2)S(=O)(=O)NC1=NCCCN1CCN(c2cc(C)ccc2C)CC1 | inactive: 103%
49 | Cc1ccc(CNC(=O)CCS(=O)(=O)c2cc3c(cc2Cl)NC(=O)CO3)cc1 | inactive: 92%
50 | COc1ccc(N2CCN(CC(O)COc3ccc(C)cc3C)CC2)cc1 (centres undefined) | inactive: 98%
51 | CC(C)(C)C(=O)NC1(C(F)(F)F)NC(=O)N(c2ccc(F)cc2)C1=O (centres undefined) | inactive: 77%
52 | Cc1ccc(Cl)cc1N1CCN(C(=O)CN2C(=O)COc3ccc(S(=O)(=O)N4CCC(C)CC4)cc32)CC1 | inactive: 52%
53 | O=C(NCc1ccc(Cl)cc1)c1ccc(NC(=O)N2CC3CCCN3c3ccccc32)cc1 (centres undefined) | inactive: 87%
54 | O=C(Nc1c(Cl)cccc1Cl)c1cccc2c1C(=O)N(C1CCCCC1)C2 | inactive: 78%
55 | COc1ccc(-n2nc(C(=O)NCCCOC(C)C)c3c4ccccc4n(C)c3c2=O)cc1 | inactive: 103%
56 | Cc1ccc2c(c1)C(O)(C(=O)NC(N)=O)C(=O)N2 (centres undefined) | inactive: 74%
57 | Fc1ccccc1N1CCN(c2ncnc3c2nc2n3CCCCC2)CC1 | inactive: 94%
58 | COc1ccc(C2C(=O)N(C3CCC(C)CC3)CC(=O)N2C2CCCCC2)cc1OC (centres undefined) | inactive: 76%
59 | CCOc1ccc(NC(=O)CC2C(=O)N(c3ccc(F)cc3)C(=O)N2CCc2sccc2C)cc1 (centres undefined) | inactive: 71%
60 | O=C(CN(C(=O)c1csnn1)c1ccccc1)NCc1ccc2c(c1)OCO2 | inactive: 70%
61 | COc1ccc(CNc2nc3c(-c4ccc(C)cc4)nnn3c3ccccc23)cc1 | inactive: 86%
62 | COc1ccc(NC(=O)Cn2nc(SC)c(S(=O)(=O)c3ccc(C)cc3)c2N)cc1OC | active: 25%
63 | O=c1[nH]c2cc3c(cc2cc1CN(CCN1CCOCC1)C(=S)Nc1ccccc1)OCCO3 | inactive: 69%
64 | CCN(CC)CCCNC(=O)CSc1nc2nc(C)c(Cc3ccccc3C)c(C)n2n1 | inactive: 75%
65 | CC(=O)OC(C(=O)n1nc(C)cc1C)c1ccccc1 (centres undefined) | inactive: 91%
66 | CCOc1ccc(NC(=O)C2CCCN(c3nn4cc(-c5ccc(OC)cc5)nc4s3)C2)cc1 (centres undefined) | inactive: 113%
67 | Cc1ccc2c(c1)nnn2C1CCN(CC(=O)N(c2ccccc2)c2ccccc2)CC1 | inactive: 98%
68 | Cc1nc2nc(C)c(NS(=O)(=O)c3ccc(F)cc3)c(=O)n2[nH]1 | inactive: 90%
69 | Cc1ccccc1OCCCn1c(CCNC(=O)C2CCCCC2)nc2ccccc21 | inactive: 61%

Row | SMILES | survival
70 | O=C(Cn1cnc(S(=O)(=O)N2CCCC2)c1)Nc1cccc(F)c1 | inactive: 91%
71 | COCCNS(=O)(=O)c1ccc(S(=O)(=O)N2CCCCC2)cc1 | inactive: 103%
72 | CN(C(=O)Cn1c(=O)n(CCC(=O)NCc2ccc3c(c2)OCO3)c(=O)c2sccc21)c1ccccc1 | inactive: 90%
73 | Cc1ccc(NC(=O)c2sc3nc4n(c(=O)c3c2C)CCCCC4)c(Br)c1 | inactive: 49%
74 | CCOC(=O)c1cc2c(=O)n3ccccc3nc2n(CCCOC)c1=NC(=O)c1c(-c2ccccc2Cl)noc1C | inactive: 49%
75 | Cc1occc1-c1nnc(SCC(=O)NCc2ccc3c(c2)OCO3)n1CC(C)C | inactive: 88%
76 | CS(=O)(=O)Nc1ccccc1C(=O)O | inactive: 81%
77 | CCCS(=O)(=O)NCCc1csc2nc(-c3ccc(C)cc3)nn12 | inactive: 74%
78 | O=C(NC1CCCCC1)c1ccc(CSc2nc3ccncc3n2Cc2ccccc2)cc1 | inactive: 70%
79 | COC(=O)c1cc2oc3ccccc3c2n1CC(=O)Nc1ccc(OC)c(OC)c1 | inactive: 79%
80 | CCN(c1ccc(Cl)cc1)S(=O)(=O)c1nnc(NC(=O)c2ccco2)s1 | inactive: 67%
81 | O=C(NCCc1ccccc1)c1ccc(Cn2c(=O)c3cccn3c3cccnc32)cc1 | inactive: 51%
82 | COc1ccc(OC)c(CNC(=O)c2ccc(Sc3ccc(Cl)cc3)c(NC(C)=O)c2)c1 | inactive: 83%
83 | CC(C)C(=O)Nc1nncs1 | inactive: 88%
84 | Cc1ccc2onc(CC(=O)N3CCN(c4ccc(Cl)cc4)CC3)c2c1 | active: 30%
85 | Cc1ccc(NC(=O)Cn2c(=O)n(CCCC(=O)NCc3ccc4c(c3)OCO4)c(=O)c3ccccc32)cc1 | inactive: 85%
86 | O=C1CC(c2nc3ccccc3n2CCC2CCCCC2)CN1c1ccccc1Cl (centres undefined) | active: 21%
87 | Cc1cccc(N2CCN(C(=O)CCCn3c(=O)[nH]c4ccsc4c3=O)CC2)c1C | inactive: 80%
88 | CCCCCCc1c(C)c2c(cc(C)c3c(C)c(C)oc32)oc1=O | inactive: 103%
89 | O=C(CN1CC(=O)Oc2ccccc21)OCC(=O)c1ccc(F)cc1 | inactive: 100%
